According to the supplement of paper PMC4166925:
± gives the standard deviation of the averaged measurements. In all, about 33,000 sequences were measured (“E-score (dimensionless, -0.5 to 0.5)”: median about -0.049, highest 2% from about 0.37 on). The list shows a part of the results.

System: T1, PmTbr T-box DNA-binding domain (GST fusion)
T1 sequence: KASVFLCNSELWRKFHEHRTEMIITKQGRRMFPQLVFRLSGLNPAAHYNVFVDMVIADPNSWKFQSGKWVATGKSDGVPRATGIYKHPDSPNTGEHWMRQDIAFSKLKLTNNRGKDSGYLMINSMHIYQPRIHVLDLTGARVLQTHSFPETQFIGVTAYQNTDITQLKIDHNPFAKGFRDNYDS
Assay: PBM E-score of 8-mer (E-score (dimensionless, -0.5 to 0.5)); Tbr is Tbrain of the sea star Patiria miniata (Pm) or the sea urchin Strongylocentrotus purpuratus (Sp); higher = stronger binding preference; most listed sequences are background and not binding sites
Settings: the construct has about 5 more residues each side
How it was run: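 Each ungapped 8-mer received an enrichment E-score from the Universal PBM Analysis Suite, averaged over duplicate arrays. The proteins were Tbr T-box DNA-binding domains, covering the whole T-box plus about five flanking residues, fused to GST and expressed in BL21 E. coli at 20 °C before glutathione affinity purification. Universal Agilent oligonucleotide arrays were made double-stranded by primer extension and incubated with 200 nM protein in PBS (pH 7.5). The arrays were then scanned and quantified, and every 8-mer was scored from probe intensities.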

Row | Sequence | PBM E-score of 8-mer
1 | TCCAAGGA | -0.3385 ± 0.0028
2 | AGTCTAGA | -0.238 ± 0.057
3 | ATATCTGC | -0.0339 ± 0.014
4 | ACGATAAA | 0.122 ± 0.051
5 | ACGTCCCT | -0.252 ± 0.034
6 | GTTGACTA | 0.155 ± 0.052
7 | ACATGTAA | 0.0256 ± 0.022
8 | GCCTTGGA | -0.126 ± 0.021
9 | AACTCTCT | -0.0883 ± 0.024
10 | AAAGTAGG | -0.07 ± 0.0051
11 | AGAGGCTG | -0.151 ± 0.025
12 | CTCAAACA | -7.5e-05 ± 0.056
13 | TAGGCCCA | -0.256 ± 0.032
14 | ACTGCCCG | -0.05 ± 0.0071
15 | ATGTGAAC | 0.175 ± 0.039
16 | AGCGCTTA | 0.213 ± 0.018
17 | ACGACAAC | 0.196 ± 0.0092
18 | TAAATTAA | -0.18 ± 0.074
19 | CCTTGATA | -0.0112 ± 0.1
20 | ATTGCACC | 0.257 ± 0.0088
21 | ATCTAGCA | 0.227 ± 0.027
22 | GGCGCTTA | -0.0559 ± 0.037
23 | ATATTAAT | -0.24 ± 0.085
24 | CACCATTA | 0.0602 ± 0.064
25 | ACTGCTTA | -0.0719 ± 0.035

Row | Sequence | PBM E-score of 8-mer
26 | ATATGACG | 0.104 ± 0.019
27 | CATCTCGG | -0.165 ± 0.025
28 | AGAGCCAG | 0.0137 ± 0.042
29 | ACCACAGA | -0.158 ± 0.048
30 | AAATCGTC | 0.139 ± 0.023
31 | AACCACCA | -0.0955 ± 0.055
32 | AACGCTTC | 0.0357 ± 0.13
33 | CTAAAGAA | 0.00353 ± 0.015
34 | ACCGCGGG | -0.0886 ± 0.011
35 | AGCCGCAT | -0.0864 ± 0.0094
36 | ATGAAAAG | 0.0999 ± 0.082
37 | CTCTAGAC | -0.104 ± 0.013
38 | ACATACTA | -0.0706 ± 0.017
39 | ACTACCGG | -0.0106 ± 0.025
40 | GCAATGGA | -0.158 ± 0.028
41 | AAACAAGT | -0.0555 ± 0.011
42 | CTGGGGCC | -0.217 ± 0.052
43 | AGCCCCGC | -0.0835 ± 0.072
44 | AAGTGGCA | 0.356 ± 0.011
45 | GATGCCCC | -0.112 ± 0.044
46 | TCGCAACA | 0.265 ± 0.0076
47 | ATTGACCA | -0.26 ± 0.045
48 | CTGCCTCA | -0.0422 ± 0.12
49 | GATTAGCA | 0.126 ± 0.014
50 | GTTAAACA | 0.00153 ± 0.043

Row | Sequence | PBM E-score of 8-mer
51 | CGCTAATA | 0.239 ± 0.0096
52 | ACCGTGAT | 0.1 ± 0.028
53 | ACCTGACG | 0.221 ± 0.063
54 | ACCGGGTG | 0.115 ± 0.029
55 | GCACCCCC | 0.226 ± 0.047
56 | CTGACCAA | -0.304 ± 0.049
57 | AGCAACCT | -0.0154 ± 0.04
58 | GGGGAACC | -0.178 ± 0.035
59 | TGGTCACA | 0.257 ± 0.053
60 | AGCAGTAC | -0.154 ± 0.02
61 | CTCTCGTA | -0.0547 ± 0.0012
62 | ACCACGTC | -0.0168 ± 0.081
63 | ACCACATC | -0.0561 ± 0.029
64 | ATGTTGAG | -0.0139 ± 0.007
65 | AACTTTGG | -0.0601 ± 0.034
66 | GCAATTCC | 0.0588 ± 0.022
67 | AACAGGTG | 0.4042 ± 0.00081
68 | CCAAATCG | 0.0834 ± 0.071
69 | CCTCAGAC | -0.101 ± 0.045
70 | ACAATACC | -0.103 ± 0.05
71 | GGGGTACA | -0.298 ± 0.0097
72 | TACGCATA | -0.15 ± 0.092
73 | CTTGTCGC | 0.277 ± 0.012
74 | TATCGAAA | 0.0388 ± 0.023
75 | ACTGAGAT | -0.121 ± 0.011

Row | Sequence | PBM E-score of 8-mer
76 | AGGGAACA | -0.263 ± 0.028
77 | AACTAAAG | -0.0861 ± 0.047
78 | AAATATGG | -0.199 ± 0.047
79 | CTTGGGCC | -0.148 ± 0.032
80 | ATCAAGGG | -0.0226 ± 0.041
81 | CAGGATTA | -0.117 ± 0.098
82 | GTATCAAC | 0.0828 ± 0.072
83 | ACGACGAT | -0.0363 ± 0.012
84 | CGAGCACC | -0.0536 ± 0.12
85 | CCTGACTC | -0.198 ± 0.029
86 | CATCTTCA | -0.0506 ± 0.053
87 | CAGAGATG | -0.121 ± 0.019
88 | AGACCTTC | -0.269 ± 0.022
89 | GCCCATCA | -0.163 ± 0.056
90 | AACTGAAA | 0.04041 ± 0.00021
91 | CTCTCGCA | 0.253 ± 0.0067
92 | CCCAAGAC | -0.166 ± 0.062
93 | GCGCCCGC | 0.024 ± 0.059
94 | GCGATCCC | 0.156 ± 0.074
95 | CCAGCGCG | 0.108 ± 0.018
96 | CATCGGTC | -0.225 ± 0.058
97 | GCAAGAAC | -0.077 ± 0.039
98 | TCAATTGA | -0.0679 ± 0.029
99 | CAGAAATA | -0.135 ± 0.074
100 | CTCCGAAG | 0.0723 ± 0.057

Row | Sequence | PBM E-score of 8-mer
101 | AACGGCAC | 0.167 ± 0.0065
102 | GAGCTCGA | -0.143 ± 0.031
103 | ATGCCCTC | -0.198 ± 0.051
104 | CCTTTGTC | 0.166 ± 0.0072
105 | ATCATCGC | 0.0827 ± 0.033
106 | CTACAGAA | 0.0244 ± 0.029
107 | CCCTTGTA | -0.116 ± 0.049
108 | TCCGGGAA | -0.24 ± 0.05
109 | CAGAGATC | -0.156 ± 0.043
110 | TAGGCACA | 0.0942 ± 0.044
111 | GTGATTTA | 0.143 ± 0.0061
112 | AATCGTGG | -0.0756 ± 0.096
113 | CCCTCACG | 0.133 ± 0.0098
114 | AATTTTTG | -0.0693 ± 0.0047
115 | AGACGACG | -0.0358 ± 0.04
116 | ATCCAGTA | 0.0505 ± 0.048
117 | GCATGCCC | -0.224 ± 0.014
118 | GGGTTGAC | 0.109 ± 0.014
119 | AAAAGGAG | 0.0598 ± 0.069
120 | AAGTCAAA | -0.0539 ± 0.12
121 | TGAGGACA | 0.034 ± 0.011
122 | AAGCACGG | -0.206 ± 0.036
123 | GCTCGCAC | 0.42 ± 0.025
124 | TCTAACCA | -0.146 ± 0.0014
125 | CGGCCGGA | -0.195 ± 0.067

Row | Sequence | PBM E-score of 8-mer
126 | CCTACAGC | -0.089 ± 0.04
127 | AAACATTA | -0.207 ± 0.019
128 | CCCACAGG | 0.0869 ± 0.067
129 | CCGCTTAG | -0.233 ± 0.072
130 | ACGCACTA | -0.0928 ± 0.029
131 | AGCGCGGA | 0.125 ± 0.017
132 | CTTTGCCC | -0.12 ± 0.005
133 | ATGTATGG | -0.1101 ± 0.00014
134 | CCCCTGAA | -0.175 ± 0.063
135 | AGACCCCC | -0.33 ± 0.033
136 | ATCTATTA | -0.193 ± 0.014
137 | CATCCAAG | -0.0542 ± 0.0078
138 | CCTTCAAG | -0.188 ± 0.024
139 | AGCACGAT | 0.083 ± 0.032
140 | AAGGGTAG | 0.0196 ± 0.05
141 | GCTAGTTA | 0.115 ± 0.036
142 | GCAGAATA | -0.113 ± 0.055
143 | CAACTCAC | 0.123 ± 0.049
144 | ACGAGCCC | -0.0405 ± 0.074
145 | TGAACAAA | -0.0442 ± 0.086
146 | ATTCTATG | -0.17 ± 0.04
147 | AGGATATG | -0.239 ± 0.013
148 | ATACCGAA | -0.129 ± 0.12
149 | CAGTCTGG | -0.183 ± 0.073
150 | ATACGGGC | -0.123 ± 0.0081

Row | Sequence | PBM E-score of 8-mer
151 | ATGTTCAA | -0.131 ± 0.037
152 | CCGCCTTA | -0.102 ± 0.021
153 | ACAATGCA | -0.0697 ± 0.0045
154 | CAGGTTGG | 0.133 ± 0.012
155 | CCGCACGG | -0.162 ± 0.049
156 | CGAAAGCC | -0.0801 ± 0.046
157 | CGTGGTTA | -0.0157 ± 0.13
158 | AAGACACG | 0.153 ± 0.012
159 | AGTCCGTC | -0.107 ± 0.021
160 | AAGTTCCT | -0.0443 ± 0.12
161 | AGTACTAA | -0.101 ± 0.061
162 | AGATTCCA | -0.0318 ± 0.013
163 | ATAGTAGA | -0.27 ± 0.06
164 | ACGATGCA | -0.102 ± 0.0098
165 | AGTATCTG | -0.212 ± 0.029
166 | ACTGTTGA | 0.123 ± 0.062
167 | TATATGAA | -0.24 ± 0.018
168 | GAGGTATA | -0.0519 ± 0.068
169 | GGCCAACC | -0.0323 ± 0.0049
170 | TATACGAA | -0.237 ± 0.031
171 | AATGATAA | 0.0274 ± 0.032
172 | ACACTCCT | 0.228 ± 0.019
